Data on 63 molecules can be found in the supplement of paper PMC9446081.

The structures appear in SMILES notation. Out of some 39,000 compounds screened, about 220 (0.56%) showed activity. This is one part of the list.
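Also: static incubation at 37 °C against the wild-type strain, values averaged over two biological replicates.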

This assay has as its system Escherichia coli K-12 BW25113. Nature of the assay: relative growth (OD600 normalised to plate interquartile mean) (fraction); higher = less growth inhibition, active = 0.2 or less. To be noted: 50 µM; LB; incubation time: overnight (16-24 h).
`CCS(=O)(=O)N1C[C@]2(C1)CN([C@@H](CO)c1c2c2ccc(cc2n1C)OC)C(=O)Nc1cccc(c1)F`: the relative growth was inactive: 1.01.
Regarding `Cn1cnc(S(=O)(=O)N[C@H]2CC[C@H](CC(=O)Nc3ccccc3)O[C@H]2CO)c1`, the relative growth was inactive: 1.
Consider `CC(C)NC(=O)N(C)C[C@@H]1Oc2ccc(NC(=O)Cc3ccccc3)cc2CC(=O)N([C@H](C)CO)C[C@@H]1C`, for which the relative growth was inactive: 0.982.
The figure for `CC1CCC2(OC1)OC1CC3C4CC=C5CC(O)CCC5(C)C4CCC3(C)C1C2C` (stereo not drawn) is inactive: 0.933.
Take `OCc1ccccc1`: the relative growth was inactive: 1.03.
The figure for `C[C@H]1CCCCO[C@@H](CN(C)C)[C@@H](C)CN([C@@H](C)CO)C(=O)c2cc(NC(=O)Nc3cccc4ccccc34)ccc2O1` is inactive: 0.99; for `C[n+]1ccc(CCCO)cc1` it is inactive: 0.983; for `COc1ccc(S(=O)(=O)N(C)C[C@H]2OCCCC[C@@H](C)Oc3ccc(NS(=O)(=O)c4cn(C)cn4)cc3C(=O)N([C@H](C)CO)C[C@H]2C)cc1` it is inactive: 0.979.
The figure for `CN1C(=O)c2cc(NS(=O)(=O)c3cccc(F)c3)ccc2OC[C@@H]2O[C@H](CC(=O)NCCN3CCCCC3)CC[C@@H]21` is inactive: 1.01; for `CC(C)NC(=O)N(C)C[C@@H]1OCCCC[C@@H](C)Oc2ccc(NC(=O)Nc3ccc(F)cc3)cc2C(=O)N([C@H](C)CO)C[C@@H]1C` it is inactive: 1.03.
In the case of `C[C@@H]1CN([C@H](C)CO)C(=O)c2cccc(NS(=O)(=O)c3ccccc3)c2O[C@@H]1CN(C)Cc1ccc(Cl)c(Cl)c1` it was inactive: 1.01; in that of `C=CCC[C@@H](Cc1ccc(F)cc1)C(=O)OC[C@@H](Cc1c[nH]c2ccccc12)NC(=O)[C@@H](CC=C)CC(=O)N(CCO)Cc1ccccc1`, inactive: 1.1; in that of `COc1ccc(NC(=O)N(C)C[C@H]2OCCCC[C@H](C)Oc3ccc(NC(=O)c4ccccc4)cc3C(=O)N([C@@H](C)CO)C[C@@H]2C)cc1`, inactive: 0.992.
In the case of `C[N+](C)(C)CC(O)CC(=O)O.[Cl-]` (stereo not drawn), the relative growth was inactive: 1.13.
In the case of `Cc1nn(C)cc1NC(=O)C[C@@H]1CC[C@@H]2[C@H](COc3ccc(NC(=O)C4CCOCC4)cc3C(=O)N2C)O1` it was inactive: 0.986.
As for `C[C@H](CO)N1C[C@H](C)[C@@H](CN(C)Cc2ccncc2)Oc2c(NS(=O)(=O)c3ccc(F)cc3)cccc2C1=O`, the relative growth was inactive: 1.
Consider `CNC(=C[N+](=O)[O-])NCCSCc1csc(CN(C)C)n1`, for which the relative growth is inactive: 0.964.
As to `C[C@@H]1CN([C@H](C)CO)C(=O)c2cc(NC(=O)NC3CCCCC3)ccc2O[C@@H](C)CCCCO[C@H]1CN(C)Cc1ccc(C(=O)O)cc1`, the relative growth was inactive: 0.996.
The figure for `C[C@@H]1CN([C@@H](C)CO)C(=O)c2cc(NS(=O)(=O)c3cccs3)ccc2O[C@@H]1CN(C)C(=O)Nc1cccc2ccccc12` is inactive: 1.01.
In the case of `CCCNC(=O)N1C[C@]2(CCN(CC2)S(=O)(=O)c2ccccc2)c2c(n(c3cc(ccc23)OC)C)[C@@H]1CO` it was inactive: 1.04.
Take `CC(=O)OC1CCC2(C)C(CCC3(C)C2CC=C2C4CC(C)(C)CCC4(C(=O)O)CCC23C)C1(C)C` (stereo not drawn): the relative growth was inactive: 1.02.
For `COc1ccc(NC(=O)Nc2ccc3c(c2)C(=O)N([C@H](C)CO)C[C@H](C)[C@H](CN(C)Cc2ccc(C(F)(F)F)cc2)OCCCC[C@@H](C)O3)cc1`, the relative growth was inactive: 1.04.
In the case of `C[C@H](C(=O)O)[C@H]1SC(=O)NC1=O`, the relative growth was inactive: 0.993.
Turning to `C[C@H](CO)N1C[C@H](C)[C@H](CN(C)Cc2ccc(C(F)(F)F)cc2)OCCCC[C@H](C)Oc2ccc(NC(=O)c3ccccc3)cc2C1=O`, the relative growth was inactive: 0.999.
On to `O=C(CN1CCOCC1)NCC[C@H]1CC[C@H](NC(=O)Cc2ccccn2)[C@@H](CO)O1`, for which the relative growth is inactive: 0.991.
In the case of `C[C@@H]1CN([C@H](C)CO)C(=O)Cc2cc(NC(=O)Cc3ccccc3)ccc2O[C@H]1CN(C)Cc1ccc(Cl)c(Cl)c1` it was inactive: 0.992; in that of `COc1ccccc1-c1cnc2c(c1)C(=O)N([C@H](C)CO)C[C@@H](C)[C@H](CN(C)C(=O)c1ccncc1)O2`, inactive: 1.01.
Turning to `CO[C@@H]1CC[C@@H]2[C@H]1OCCN2C(=O)N(C)C`, the relative growth was inactive: 1.01.
The figure for `OC[C@H]1CC[C@@H]2O[C@H](CCc3ccc(C#Cc4ccccc4)cc3)[C@@H](n3cc(-c4ccccc4)nn3)C[C@@H]2O1` is inactive: 1.02.
With `COc1ccc(NC(=O)Nc2cccc3c2O[C@@H](CN(C)Cc2ccc(Cl)c(Cl)c2)[C@@H](C)CN([C@H](C)CO)C3=O)cc1`, the relative growth is inactive: 0.988.
Regarding `CNC(=NCc1ccc(OC)cc1)NC`, the relative growth was inactive: 0.998.
Turning to `CC(C)NC(=O)Nc1ccc2c(c1)C(=O)N([C@@H](C)CO)C[C@@H](C)[C@@H](CN(C)C(=O)C1CCCCC1)OCCCC[C@@H](C)O2`, the relative growth was inactive: 1.01.
Turning to `COc1ccc(S(=O)(=O)Nc2cccc3c2O[C@@H](CN(C)S(=O)(=O)c2ccc(C)cc2)[C@@H](C)CN([C@@H](C)CO)C3=O)cc1`, the relative growth was inactive: 1.03.
As to `O=C(C[C@H]1CC=CCC[C@H](Cc2ccc(F)cc2)C(=O)OC[C@@H](Cc2ccccc2)NC1=O)NCCO`, the relative growth is inactive: 0.993.
Take `CS(=O)(=O)Nc1ccc([N+](=O)[O-])cc1Oc1ccccc1`: the relative growth was inactive: 0.925.
With `COc1cc(-c2coc3cc(OC4OC(CO)C(O)C(O)C4O)c(OC)c(O)c3c2=O)cc(O)c1OC` (stereo not drawn), the relative growth was inactive: 1.09.
In the case of `O=C(C[C@@H]1CC[C@@H]2[C@H](COC[C@H](O)CN2S(=O)(=O)c2ccc(Cl)cc2)O1)N1CCc2ccccc2C1`, the relative growth was inactive: 1.01.
Consider `C[C@H](CO)N1C[C@H](C)[C@H](CN(C)S(=O)(=O)c2ccccc2C#N)OCc2cnnn2CCCC1=O`, for which the relative growth was inactive: 1.01.
For `COc1ccc(NC(=O)Nc2ccc3c(c2)C(=O)N([C@@H](C)CO)C[C@@H](C)[C@H](CN(C)S(=O)(=O)c2ccc(C)cc2)OCCCC[C@@H](C)O3)cc1`, the relative growth is inactive: 1.02.
Turning to `O=S(=O)([O-])c1cc(O)c2c(N=Nc3ccc(Nc4ccccc4)c4c(S(=O)(=O)[O-])cccc34)cc(S(=O)(=O)[O-])cc2c1.[Na+].[Na+].[Na+]`, the relative growth was inactive: 1.25.
For the molecule `CC1(C)OC(=O)C2(C(=O)O1)[C@@H](c1ccc(-c3ccc(-c4ccc(O)cc4)cc3)cc1)CC(=O)C[C@H]2c1ccccc1`, the relative growth is inactive: 1.02.
In the case of `Cc1noc(C)c1S(=O)(=O)N(C)C[C@@H]1OCCCC[C@@H](C)Oc2ccc(N(C)C)cc2C(=O)N([C@@H](C)CO)C[C@H]1C`, the relative growth is inactive: 0.99.
Turning to `Cc1ccnc(N)c1`, the relative growth is inactive: 0.966.
The figure for `COc1ccc(C(=O)O)cc1` is inactive: 1.04; for `C[C@H]1CN([C@@H](C)CO)C(=O)c2cc(NC(=O)Cc3cn(C)c4ccccc34)ccc2O[C@@H]1CN(C)Cc1ccc(Oc2ccccc2)cc1` it is inactive: 0.963; for `OS(=O)(=O)c1ccc(cc1)/C/1=C\2/N/C(=C(\C3=N/C(=C(/c4ccc(cc4)S(=O)(=O)O)c4ccc([nH]4)/C(=C\4/C=CC1=N4)c1ccc(cc1)S(=O)(=O)O)C=C3)c1ccc(cc1)S(=O)(=O)O)C=C2` it is inactive: 0.994.
For `COc1ccc(CN(C)C[C@H]2Oc3c(NC(=O)Nc4ccc(C(F)(F)F)cc4)cccc3C(=O)N([C@H](C)CO)C[C@@H]2C)cc1`, the relative growth was inactive: 0.668.
For the molecule `CCCNC(=O)Nc1ccc2c(c1)C(=O)N(C)C[C@H](OC)[C@@H](C)CN(Cc1ccc(-c3ccccn3)cc1)[C@H](C)CO2`, the relative growth is inactive: 0.995.
Take `Cc1noc(C)c1NC(=O)Nc1ccc2c(c1)C(=O)N([C@H](C)CO)C[C@H](C)[C@H](CN(C)Cc1ccc(-c3ccccc3)cc1)O2`: the relative growth was inactive: 0.872.
For the molecule `CC(C)(C)S(=O)N1Cc2cc(C(=O)NCc3ccc4c(c3)OCO4)nc(-c3cccc(-c4cccc(F)c4)c3)c2[C@@H]1CCO` (stereo partly drawn), the relative growth was inactive: 1.02.
For `C[C@@H]1CN([C@H](C)CO)C(=O)c2c(c3ccccc3n2C)-c2ccccc2CO[C@@H]1CN(C)Cc1ccc(C(F)(F)F)cc1`, the relative growth was inactive: 1.08.
The figure for `CC(=O)N1CSC[C@H]1C(=O)O` is inactive: 0.997; for `C[C@H]1CN([C@@H](C)CO)C(=O)c2cccc(NC(=O)Nc3ccc4c(c3)OCO4)c2O[C@H]1CN(C)C(=O)Nc1ccc(C(F)(F)F)cc1` it is inactive: 0.95; for `O=C(NCc1ccncc1)C(=O)NC[C@H]1OCCN1S(=O)(=O)c1ccc(F)cc1` it is inactive: 1.02.
As for `C[C@@H]1CN([C@@H](C)CO)C(=O)c2cc(NC(=O)CCC(F)(F)F)ccc2O[C@@H]1CN(C)S(=O)(=O)c1cn(C)cn1`, the relative growth is inactive: 0.979.
As to `CCCC#Cc1cnc2c(c1)C(=O)N([C@H](C)CO)C[C@H](C)[C@H](CN(C)S(=O)(=O)c1cccc(OC)c1)O2`, the relative growth was inactive: 1.05.
Regarding `O=C(O)c1cncc(C(=O)O)c1`, the relative growth is inactive: 1.04.
Take `C[C@H](N)C(=O)O`: the relative growth was inactive: 1.01.
Turning to `Cc1noc(C)c1S(=O)(=O)N(C)C[C@@H]1OCCCC[C@H](C)Oc2ccc(N(C)C)cc2C(=O)N([C@@H](C)CO)C[C@H]1C`, the relative growth was inactive: 0.967.
In the case of `C[C@H](CO)N1C[C@H](C)[C@H](CN(C)S(C)(=O)=O)Oc2cc(-c3cccc(F)c3)ccc2S1(=O)=O` it was inactive: 1.03.
In the case of `CC1(C)CCC(c2ccc(Cl)cc2)=C(CN2CCN(c3ccc(C(=O)NS(=O)(=O)c4ccc(N[C@H](CCN5CCOCC5)CSc5ccccc5)c(S(=O)(=O)C(F)(F)F)c4)cc3)CC2)C1`, the relative growth was inactive: 1.05.
In the case of `CN1CCN(C(=O)C[C@H]2CC[C@H]3[C@@H](COC[C@@H](O)CN3C(=O)Nc3ccc4c(c3)OCO4)O2)CC1`, the relative growth was inactive: 1.01.
In the case of `C[C@@H]1CCCCO[C@@H](CN(C)C(=O)Nc2ccc(C(F)(F)F)cc2)[C@@H](C)CN([C@H](C)CO)C(=O)c2cc(NC(=O)Nc3ccccc3)ccc2O1` it was inactive: 1.02.
